Measured values taken from PubChem BioAssay AID686979 (National Center for Advancing Translational Sciences (NCATS), 2013).
Among all 420,000 compounds or so, about 50,000 (12%) were called active. Inconclusive means that the source gave no clear call. Such entries were picked first, then a sample of the others. Calls follow the shape of the dose curve; as a rule, active = well fitted inhibition curve with a large enough effect; inconclusive = small, poorly fitted or top-dose-only effect; inactive = flat fitted curve, though single readings scatter. No potency is given beside an inconclusive call; the fits are too rough.
% is scaled to controls: 0 for no effect and ±100 for the full control effect; potency is read from the fitted curve at half-maximal effect; tags tell the direction and shape of the fitted curve.

Test: qHTS for Inhibitors of human tyrosyl-DNA phosphodiesterase 1 (TDP1): qHTS in cells in presence of CPT; also: nearly all actives have a fitted effect of over 55% in size
Conditions: chicken DT40 Tdp1-/-;hTDP1 cells + 20 nM CPT, ATP luminescence, 48 h; activity change, negative = growth inhibition: at 46.2 µM (top of the series) unless noted
Outline: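 Cell growth measured by CellTiter-Glo luminescence after a minimum 48 h, 37 C compound exposure with 20 nM CPT in Tdp1-knockout DT40 cells stably expressing hTDP1, seeded 400/well; qHTS titration format.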
In the case of `CCc1nc(N2CCN(Cc3ccc4c(c3)OCO4)CC2)c2oc3ccccc3c2n1`, the Potency is reported as active: 25.9 µM. In the case of `O=c1oc2ccccc2c(NC2CCCCC2)c1NS(=O)(=O)c1ccc(F)c(Cl)c1`, the “activity change, negative = growth inhibition” value is reported as inactive: 4.71%. For `Cc1cccc(CSCCNC(=S)Nc2ccccc2)c1`, the Potency was inconclusive [inhibitor, single point]. With `O=C(NNC(=O)c1ccncc1)Nc1cccc([N+](=O)[O-])c1` the “activity change, negative = growth inhibition” value was inactive: 8.06%. With `CCOc1ccc(S(=O)(=O)Nc2nc3ccccc3nc2Cl)cc1` the Potency was inconclusive [inhibitor, single point]. In the case of `C[C@H](CO)N1C[C@H](C)[C@@H](CN(C)S(=O)(=O)c2ccc(F)cc2)Oc2ccc(NC(=O)Nc3ccccc3)cc2C1=O`, the Potency is reported as inconclusive [inhibitor, single point]. For `O=C(c1cc(COc2ccc(F)cc2Cl)on1)N(CCO)Cc1cccs1`, the Potency was inconclusive [inhibitor, single point]. With `CC1(C(=O)Nc2ccccc2Cc2ccccc2)CCN1Cc1ccccc1Cl` (stereo not given) the Potency was inconclusive [inhibitor, single point]. In the case of `CNC[C@H]1Oc2c(NC(=O)C3CCCCC3)cccc2C(=O)N([C@H](C)CO)C[C@@H]1C`, the “activity change, negative = growth inhibition” value is reported as inactive: 11.7%. For `O=C(Nc1nc2c(Cl)cccc2s1)c1ccc([N+](=O)[O-])o1`, the Potency was active: 20.6 µM. In the case of `O=C(CCN1C(=O)/C(=C\c2cccc(Br)c2)SC1=S)N1CCOCC1`, the Potency is reported as active: 6.51 µM. With `Cc1ccc(-c2nc(CS(=O)(=O)CC(=O)NC(C)CCc3ccccc3)c(C)o2)cc1` (stereo not given) the Potency was inconclusive [inhibitor, single point]. For `O=C(O)c1cccc(NC(=S)NC(NC(=O)c2ccco2)C(Cl)(Cl)Cl)c1` (stereo not given), the “activity change, negative = growth inhibition” value was inactive: -0.145%. In the case of `O=C(NCCO)C(=O)NCC(c1ccc2c(c1)OCO2)N1CCOCC1` (stereo not given), the “activity change, negative = growth inhibition” value is reported as inactive: -3.08%. With `O=C(NCc1ccccc1)C(c1ccc(C(F)(F)F)cc1)n1c(=O)c(-c2cc3ccccc3[nH]2)nc2ccccc21` (stereo not given) the Potency was inconclusive [inhibitor, single point]. With `CC(C)CN(c1ccccc1)S(=O)(=O)c1nnc(NC(=O)C2CCCCC2)s1` the Potency was active: 5.17 µM. For `Cc1cccc(N(CC(=O)NC2CCCC2)C(=O)CCC(=O)Nc2ccccn2)c1`, the “activity change, negative = growth inhibition” value was inactive: -2.7%. In the case of `COc1ccccc1-c1sc2ccccc2c1-c1ccc(OCCN2CCCCC2)cc1`, the Potency is reported as active: 18.4 µM. For `CC1=C(C(=O)N(C)C)CC(CC(=O)NCC2CCCCC2)C(=O)N1CCC1=CCCCC1` (stereo not given), the Potency was inconclusive [inhibitor, single point]. In the case of `O=C(CN1CCCC1)Nc1ccccc1Cl`, the “activity change, negative = growth inhibition” value is reported as inactive: -3.44%. For `CC(C)CC(=O)Nc1ccc(C(=O)NNC(=S)NC(=O)C2CCCCC2)cc1`, the Potency was active: 14.6 µM. With `Cc1cc(C)cc(NC(=S)NCc2ccc3[nH]c4c(c3c2)CCCC4)c1` the Potency was inconclusive [inhibitor, single point]. In the case of `COc1ccccc1NC(=O)Cc1nnc(SCC(=O)Nc2ccccc2F)n1C`, the Potency is reported as active: 16.4 µM. With `COc1ccc(NC(=O)CCCN2C(=O)/C(=C\c3ccco3)SC2=S)cc1` the Potency was inconclusive [inhibitor, single point]. For `CC1CC(C)(C)NC(=S)N1CCCC(=O)NCc1ccccc1` (stereo not given), the “activity change, negative = growth inhibition” value was inactive: 15.5%. With `O=C(NC1CCCC1)C1CCCN1C(=O)Oc1ccccc1` (stereo not given) the “activity change, negative = growth inhibition” value was inactive: 5.8%. In the case of `CN(CC(=O)Nc1cccc(F)c1)C(=O)c1cn(-c2ccccc2)nc1-c1cccs1`, the Potency is reported as inconclusive [inhibitor, single point]. In the case of `CC(C)C[C@@H](CN1CCC[C@H]1CN1C(=O)C(=O)NC[C@@H]1Cc1ccc(O)cc1)N1C[C@H](Cc2ccccc2)N(CC2CCCCC2)C(=O)C1=O`, the Potency is reported as inconclusive [inhibitor, single point]. In the case of `COc1cccc(NC(=S)NC(=O)/C=C/c2ccco2)c1`, the Potency is reported as active: 18.4 µM. In the case of `CCC(=O)Nc1ccccc1Nc1cc(C#N)c(C#N)cc1[N+](=O)[O-]`, the Potency is reported as inconclusive [inhibitor, single point]. With `COc1ccc(C(=O)c2c(C(F)(F)F)oc3c2C(=O)c2ccccc2C3=O)cc1` the Potency was active: 4.61 µM. In the case of `Cc1sc2nc(COC(=O)c3cccc(S(=O)(=O)N(C)c4ccccc4)c3)[nH]c(=O)c2c1C`, the Potency is reported as inconclusive [inhibitor, full curve]. For `Cc1ccc(C)c(C(=O)Cn2c(NCCO)nc3ccccc32)c1`, the Potency was inconclusive [inhibitor, single point]. In the case of `Fc1ccc2[nH]c3c(N4CCc5ccccc5C4)ncnc3c2c1`, the Potency is reported as active: 1.84 µM. For `Cc1ccc(Nc2nc3ccccc3n3cnnc23)cc1Cl`, the Potency was inconclusive [inhibitor, single point]. With `O=C(CCS(=O)(=O)c1ccccc1)N(Cc1cccnc1)c1nc2c(F)cccc2s1` the Potency was active: 3.66 µM. For `Cc1c(CCOC(=O)C23CC4CC(CC(C)(C4)C2)C3)sc[n+]1CC(=O)c1ccccc1`, the Potency was active: 23.1 µM. With `CCOC(=O)C1CCN(Cc2ccc(OCc3ccccc3)cc2)CC1` the “activity change, negative = growth inhibition” value was inactive: -24.3%. In the case of `CC(=O)Nc1ccc(NC(=O)c2csnn2)cc1`, the “activity change, negative = growth inhibition” value is reported as inactive: 3.46%. With `O=C(C1CC1)N1CCc2cc(S(=O)(=O)N(CCO)Cc3ccccc3)ccc21` the Potency was inconclusive [inhibitor, single point]. For `Cc1ccccc1CN1CCN(c2nc3ccccc3s2)CC1`, the Potency was active: 18.4 µM. With `Cc1ccc(-c2nc3ncccc3n2O)cc1` the Potency was inconclusive [inhibitor, single point]. With `COc1ccc(C(C[N+](=O)[O-])C2(c3ccc(OC)c(OC)c3)C(=O)c3ccccc3C2=O)cc1` (stereo not given) the Potency was inconclusive [inhibitor, partial curve, poor fit]. With `COc1cccc(C2=CC(c3cccc(OC)c3OC(F)F)n3nnnc3N2)c1` (stereo not given) the Potency was inconclusive [inhibitor, single point]. For `CCOC(=O)N1CCC(NC(=O)c2sc(-n3cccc3)nc2C)CC1`, the activity change, negative = growth inhibition was inconclusive: -30.5% [inhibitor]. With `CCC1CCCCN1CCCNC(=O)C1CCCN(S(=O)(=O)N2CC(C)CC(C)C2)C1` (stereo not given) the “activity change, negative = growth inhibition” value was inactive: -0.484%. For `CCC(C)(C)NC(=O)C(c1cccn1C)N(Cc1ccccc1)C(=O)Cn1nnc2ccccc21` (stereo not given), the Potency was inconclusive [inhibitor, single point]. For `O=C(NCc1ccc(Cl)cc1)C(=O)NCC(c1ccc2c(c1)OCO2)N1CCOCC1` (stereo not given), the Potency was inconclusive [inhibitor, single point]. In the case of `COc1ccc(Nc2cc(C)nc3ccccc23)cc1`, the Potency is reported as inconclusive [inhibitor, single point]. With `CCCCNC(=O)[C@@H]1CC=C[C@@H]2CCN(Cc3ccc(OC)c(OC)c3)C(=O)[C@@H]21` the Potency was inconclusive [inhibitor, single point]. With `Nn1cc(-c2ccccc2)nc1SCC(=O)N1CCN(S(=O)(=O)c2ccc3ccccc3c2)CC1` the Potency was inconclusive [inhibitor, partial curve, poor fit]. With `C/C(=N\NC(=O)c1ccn(C)n1)c1ccc(NC(=O)c2cccc(F)c2)cc1` the Potency was inconclusive [inhibitor, single point]. In the case of `COc1cc([N+](=O)[O-])ccc1NC(=O)Cc1ccc(F)cc1`, the Potency is reported as inconclusive [inhibitor, partial curve]. In the case of `Cc1ccc(NC(=O)CSc2nnc(Cc3cccn3C)n2-c2ccc(F)cc2)cc1`, the Potency is reported as inconclusive [inhibitor, single point]. For `CN1C(=O)C(C)(C)c2cc(S(=O)(=O)N3CCC(C(=O)NCc4ccc(F)cc4)CC3)ccc21`, the Potency was active: 7.31 µM. With `O=C1c2ccccc2C(=O)C1c1ccncc1` the Potency was inconclusive [inhibitor, single point]. With `COc1cccc(SCc2noc(C(=O)NC(C)C)c2C(=O)NC(C)C)c1` the Potency was inconclusive [inhibitor, single point]. In the case of `O=C(NCCCN1CCCC1=O)C1CCN(S(=O)(=O)c2cccc(C(F)(F)F)c2)CC1`, the “activity change, negative = growth inhibition” value is reported as inactive: -15.8%. For `CC1CN(Cc2cn(C)nc2-c2ccc(Oc3ccccc3)cc2)CCN1C` (stereo not given), the Potency was inconclusive [inhibitor, single point]. For `O=C(Nc1ccccc1)c1oc2ccccc2c1NC(=O)C1CC1`, the Potency was inconclusive [inhibitor, single point]. With `CN(C(=O)c1ccc(NC(=O)C2CC=CCC2C(=O)O)cc1)c1ccccc1` (stereo not given) the “activity change, negative = growth inhibition” value was inactive: -22.8%. In the case of `COc1ccc(Cl)cc1C(=O)NNC(=O)c1nn(C)c(=O)c2ccccc12`, the Potency is reported as inconclusive [inhibitor, single point]. In the case of `C=CCOC(=O)C(C#N)c1nc2ccccc2nc1N1CCC(C(=O)OCC)CC1` (stereo not given), the Potency is reported as inconclusive [inhibitor, single point]. For `Cc1ccc(S(=O)(=O)c2cc(N3CCOCC3)nc(-c3ccccc3)n2)cc1`, the “activity change, negative = growth inhibition” value was inactive: 5.43%. For `Cc1cccc(/C=C/C(=O)c2cc(Br)ccc(=O)c2O)c1`, the Potency was active: 3.26 µM. For `COc1cccc2cc(C(=O)C3=C(O)C(=O)N(CCN(C)C)C3c3ccc(Cl)cc3)oc12` (stereo not given), the “activity change, negative = growth inhibition” value was inactive: 3.69%. With `CCc1ccc2nc(N(CCCN(C)C)C(=O)c3ccc4c(c3)OCCO4)sc2c1` the Potency was inconclusive [inhibitor, single point]. With `CCOc1ccc2c(c1)c(=O)c(C(=O)c1ccccc1)cn2Cc1ccccc1F` the Potency was inconclusive [inhibitor, single point]. With `O=C(CSc1nnc(CN2CCCCC2)n1-c1ccccc1)c1ccc2c(c1)OCO2` the Potency was inconclusive [inhibitor, single point]. With `Cc1ccccc1C(=O)NC(C)c1ccc2c(c1)CCCC2` (stereo not given) the Potency was inconclusive [inhibitor, single point].
